Data from patent US20260216360A1, “TYROSINASE-MEDIATED PROTEIN SITE-SPECIFIC CONJUGATION AND USE THEREOF” (SHANGHAI SHENGDI PHARMACEUTICAL CO., LTD., priority 2023, published 2026).

B1: 0102 L15: 0102 mutant S202Y in Cκ, HC SEQ ID NO: 12, LC SEQ ID NO: 20 (antibody)
heavy: EVQLVESGGGLVKPGGSLRLSCAASGFTFSTYAMSWVRQAPEKRLEWVATISDSDYYADNVKGRFTISRDNAKNSLYLQMNSLRAEDTAVYYCVRDDWDGDFDYWGQGTLVTVSS[no letters for human IgG1 constant region]
light: DVVMTQSPLSLPVTPGEPASISCKSTQSLLYSDGETYLNWLLQKPGQSPQRLIYLVSKLDSGVPDRFSGSGSGTDFTLKISRVEAEDVGVYYCWQGSHFPQTFGGGTKVEIKRTVAAPSVFIFPPSDEQLKSGTASVVCLLNNFYPREAKVQWKVDNALQSGNSQESVTEQDSKDSTYSLSSTLTLSKADYEKHKVYACEVTHQGLYSPVTKSFNRGEC
modifications: 0102 wt HC; 0102 L15 LC
B2: c-met L15 (antibody)
heavy: QVQLVESGGGVVQPGRSLRLSCAASGFSLSNYGVHWVRQAPGKGLEWLAVIWSGGSTNYAAAFVSRLTISKDNSKNTVYLQMNSLRAEDTAVYYCARNHDNPYNYAMDYWGQGTTVTVSS[no letters for human IgG1 constant region]
light: DIVLTQSPDSLAVSLGERATINCRADKSVSTSTYNYLHWYQQKPGQPPKLLIYLASNLASGVPDRFSGSGSGTDFTLTISSLQAEDVAVYYCQHSRDLPPTFGQGTKLEIKRTVAAPSVFIFPPSDEQLKSGTASVVCLLNNFYPREAKVQWKVDNALQSGNSQESVTEQDSKDSTYSLSSTLTLSKADYEKHKVYACEVTHQGLYSPVTKSFNRGEC
modifications: c-met L15 HC; c-met L15 LC

Tested on: VsTYR core
Experiment: Tyrosinase-mediated one-pot conjugation of antibodies, VsTYR core (RP-HPLC, LC-MS DAR)
Type: biochemical, Verrucomicrobium spinosum
Description: After an additional tyrosine is introduced into the antibody by mutation, tyrosinase can recognize it and oxidize it to quinone. The small molecule in the reaction system rapidly undergoes a 4+2 Diels Alder reaction with the quinone through a linker, thereby forming an antibody conjugate.
Specific reaction conditions: The antibody concentration was controlled to be about 2.5 mg/mL. […] The small molecule was dissolved in DMSO, and the final concentration of DMSO was controlled to be not greater than 10%. After pre-cooling on ice, tyrosinase (final concentration: 1 mg/mL) was added. The reaction pH was controlled to be about 5.5. The reaction was performed at 4° C. for 16 h. The final reaction mixture was stored at −40° C. for later analysis.
RP-HPLC analysis was performed on the conjugate sample using conventional high performance liquid chromatography to determine how the HC/LC containing the corresponding mutation site(s) reacted. […] Ultraviolet absorption was measured at 280 nm.
The reaction mixture of conjugation was diluted to 1 mg/mL, and formic acid (final concentration: 0.1%) was added to enhance the protonation of the sample. The sample was analyzed using a ThermoFisher QE plus mass spectrometer. […] After the sampling was completed, mass spectrometry data of the target peak were calculated using BioPharma Finder software. […]

Row | Molecule | DAR value (calculated by MS) (enzyme VsTYR core, compound L-2, calculated DAR for single-point mutants is 2) | DAR value (calculated by MS) (VsTYR core, polypeptide P-1)
1 | B1 | 2.00 | –
2 | B2 | – | 2.00
